Measured values: the supplement of paper PMC8728848
The list shows a part of the results.

Assays:
Assay in all cases: glycan array binding signal (z-score within array); higher = stronger binding
Conditions in all cases: glycan notation: IUPAC condensed, linker removed
[1] = target: Gal(b1-3)GlcNAc(b1-6)[Gal(b1-3)]GalNAc
Procedure, shortened: (§1)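 Glycan array data were curated from 3228 arrays in the Consortium for Functional Glycomics database and kept only where the protein sequence was available. Glycan names were converted to IUPAC-condensed notation, and columns mapping to the same glycan were averaged. The binding signal is a within-array Z-score, averaged across arrays of the same protein sequence at different concentrations or buffers and across linkers. Negative Z-scores can be read as non-binding.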

[2] = target: Gal(b1-3)GlcNAc6S
Procedure, shortened: as §1

[3] = target: Gal(b1-3)[Fuc(a1-4)]GlcNAc
Procedure, shortened: as §1

[4] = target: Gal(b1-3)[Fuc(a1-4)]GlcNAc(b1-2)Man
Procedure, shortened: as §1

[5] = target: Gal(b1-3)[Fuc(a1-4)]GlcNAc(b1-2)Man(a1-3)[Gal(b1-3)[Fuc(a1-4)]GlcNAc(b1-2)Man(a1-6)]Man(b1-4)GlcNAc(b1-4)[Fuc(a1-6)]GlcNAc
Procedure, shortened: as §1

[6] = target: Gal(b1-3)[Fuc(a1-4)]GlcNAc(b1-3)Gal(b1-3)[Fuc(a1-4)]GlcNAc
Procedure, shortened: as §1

[7] = target: Gal(b1-3)[Fuc(a1-4)]GlcNAc(b1-3)Gal(b1-4)[Fuc(a1-3)]GlcNAc
Procedure, shortened: as §1

[8] = target: Gal(b1-3)[Fuc(a1-4)]GlcNAc(b1-6)GalNAc
Procedure, shortened: as §1

[9] = target: Gal(b1-3)[GlcNAc(b1-6)]GalNAc
Procedure, shortened: as §1

[10] = target: Gal(b1-3)[Neu5Ac(a2-6)]GalNAc
Procedure, shortened: as §1

[11] = target: Gal(b1-3)[Neu5Ac(a2-6)]GlcNAc(b1-4)Gal(b1-4)Glc
Procedure, shortened: as §1

[12] = target: Gal(b1-3)[Neu5Ac(b2-6)]GalNAc
Procedure, shortened: as §1

[13] = target: Gal(b1-4)Gal
Procedure, shortened: as §1

[14] = target: Gal(b1-4)GalNAc(a1-3)[Fuc(a1-2)]Gal(b1-4)GlcNAc
Procedure, shortened: as §1

[15] = target: Gal(b1-4)GalNAc(b1-3)[Fuc(a1-2)]Gal(b1-4)GlcNAc
Procedure, shortened: as §1

[16] = target: Gal(b1-4)Glc
Procedure, shortened: as §1

[17] = target: Gal(b1-4)Glc6S
Procedure, shortened: as §1

[18] = target: Gal(b1-4)GlcNAc
Procedure, shortened: as §1

[19] = target: Gal(b1-4)GlcNAc(a1-6)Gal(b1-4)GlcNAc
Procedure, shortened: as §1

[20] = target: Gal(b1-4)GlcNAc(b1-2)Man
Procedure, shortened: as §1

[21] = target: Gal(b1-4)GlcNAc(b1-2)Man(a1-3)Man(b1-4)GlcNAc(b1-4)GlcNAc
Procedure, shortened: as §1

[22] = target: Gal(b1-4)GlcNAc(b1-2)Man(a1-3)[Gal(b1-4)GlcNAc(b1-2)Man(a1-6)]Man(b1-4)GlcNAc(b1-4)GlcNAc
Procedure, shortened: as §1

[23] = target: Gal(b1-4)GlcNAc(b1-2)Man(a1-3)[Gal(b1-4)GlcNAc(b1-2)Man(a1-6)]Man(b1-4)GlcNAc(b1-4)[Fuc(a1-6)]GlcNAc
Procedure, shortened: as §1

[24] = target: Gal(b1-4)GlcNAc(b1-2)Man(a1-3)[Gal(b1-4)GlcNAc(b1-2)Man(a1-6)][Gal(b1-4)GlcNAc(b1-4)]Man(b1-4)GlcNAc(b1-4)[Fuc(a1-6)]GlcNAc
Procedure, shortened: as §1

[25] = target: Gal(b1-4)GlcNAc(b1-2)Man(a1-3)[Gal(b1-4)GlcNAc(b1-2)Man(a1-6)][GlcNAc(b1-4)]Man(b1-4)GlcNAc(b1-4)[Fuc(a1-6)]GlcNAc
Procedure, shortened: as §1

[26] = target: Gal(b1-4)GlcNAc(b1-2)Man(a1-3)[GlcNAc(b1-2)Man(a1-6)]Man(b1-4)GlcNAc(b1-4)GlcNAc
Procedure, shortened: as §1

[27] = target: Gal(b1-4)GlcNAc(b1-2)Man(a1-3)[GlcNAc(b1-4)][Gal(b1-4)GlcNAc(b1-2)Man(a1-6)]Man(b1-4)GlcNAc(b1-4)GlcNAc
Procedure, shortened: as §1

[28] = target: Gal(b1-4)GlcNAc(b1-2)Man(a1-3)[Man(a1-6)]Man(b1-4)GlcNAc(b1-4)GlcNAc
Procedure, shortened: as §1

[29] = target: Gal(b1-4)GlcNAc(b1-2)Man(a1-6)Man(b1-4)GlcNAc(b1-4)GlcNAc
Procedure, shortened: as §1

[30] = target: Gal(b1-4)GlcNAc(b1-2)Man(a1-6)[GlcNAc(b1-2)Man(a1-3)]Man(b1-4)GlcNAc(b1-4)GlcNAc
Procedure, shortened: as §1

[31] = target: Gal(b1-4)GlcNAc(b1-2)Man(a1-6)[Man(a1-3)]Man(b1-4)GlcNAc(b1-4)GlcNAc
Procedure, shortened: as §1

[32] = target: Gal(b1-4)GlcNAc(b1-2)[Gal(b1-4)GlcNAc(b1-4)]Man(a1-3)[Gal(b1-4)GlcNAc(b1-2)Man(a1-6)]Man(b1-4)GlcNAc(b1-4)GlcNAc
Procedure, shortened: as §1

[33] = target: Gal(b1-4)GlcNAc(b1-2)[Gal(b1-4)GlcNAc(b1-4)]Man(a1-3)[Gal(b1-4)GlcNAc(b1-2)[Gal(b1-4)GlcNAc(b1-6)]Man(a1-6)]Man(b1-4)GlcNAc(b1-4)GlcNAc
Procedure, shortened: as §1

[34] = target: Gal(b1-4)GlcNAc(b1-2)[Gal(b1-4)GlcNAc(b1-4)]Man(a1-3)[GlcNAc(b1-4)][Gal(b1-4)GlcNAc(b1-2)Man(a1-6)]Man(b1-4)GlcNAc(b1-4)GlcNAc
Procedure, shortened: as §1

[35] = target: Gal(b1-4)GlcNAc(b1-2)[Gal(b1-4)GlcNAc(b1-4)]Man(a1-3)[GlcNAc(b1-4)][Gal(b1-4)GlcNAc(b1-2)[Gal(b1-4)GlcNAc(b1-6)]Man(a1-6)]Man(b1-4)GlcNAc(b1-4)GlcNAc
Procedure, shortened: as §1

[36] = target: Gal(b1-4)GlcNAc(b1-2)[Gal(b1-4)GlcNAc(b1-6)]Man(a1-6)[Gal(b1-4)GlcNAc(b1-2)Man(a1-3)]Man(b1-4)GlcNAc(b1-4)GlcNAc
Procedure, shortened: as §1

[37] = target: Gal(b1-4)GlcNAc(b1-2)[Gal(b1-4)GlcNAc(b1-6)]Man(a1-6)[Gal(b1-4)GlcNAc(b1-2)Man(a1-3)]Man(b1-4)GlcNAc(b1-4)[Fuc(a1-6)]GlcNAc
Procedure, shortened: as §1

[38] = target: Gal(b1-4)GlcNAc(b1-2)[Gal(b1-4)GlcNAc(b1-6)]Man(a1-6)[GlcNAc(b1-4)][Gal(b1-4)GlcNAc(b1-2)Man(a1-3)]Man(b1-4)GlcNAc(b1-4)GlcNAc
Procedure, shortened: as §1

[39] = target: Gal(b1-4)GlcNAc(b1-2)[Gal(b1-4)GlcNAc(b1-6)]Man(a1-6)[GlcNAc(b1-4)][Gal(b1-4)GlcNAc(b1-2)[Gal(b1-4)GlcNAc(b1-4)]Man(a1-3)]Man(b1-4)GlcNAc(b1-4)[Fuc(a1-6)]GlcNAc
Procedure, shortened: as §1

[40] = target: Gal(b1-4)GlcNAc(b1-3)Gal(b1-3)GalNAc
Procedure, shortened: as §1

[41] = target: Gal(b1-4)GlcNAc(b1-3)Gal(b1-3)GlcNAc
Procedure, shortened: as §1

[42] = target: Gal(b1-4)GlcNAc(b1-3)Gal(b1-4)Glc
Procedure, shortened: as §1

[43] = target: Gal(b1-4)GlcNAc(b1-3)Gal(b1-4)GlcNAc
Procedure, shortened: as §1

[44] = target: Gal(b1-4)GlcNAc(b1-3)Gal(b1-4)GlcNAc(b1-2)Man(a1-3)[Gal(b1-4)GlcNAc(b1-3)Gal(b1-4)GlcNAc(b1-2)Man(a1-6)]Man(b1-4)GlcNAc(b1-4)GlcNAc
Procedure, shortened: as §1

[45] = target: Gal(b1-4)GlcNAc(b1-3)Gal(b1-4)GlcNAc(b1-2)Man(a1-3)[Gal(b1-4)GlcNAc(b1-3)Gal(b1-4)GlcNAc(b1-2)Man(a1-6)]Man(b1-4)GlcNAc(b1-4)[Fuc(a1-6)]GlcNAc
Procedure, shortened: as §1

B1: MPA (Maclura pomifera), P18674 (protein)
chain: GVTFDDGAYTGIREINFEYNSETAIGGLRVTYDLNGMPFVAEDHKSFITGFKPVKISLEFPSEYIVEVSGYVGKVEGYTVIRSLTFKTNKQTYGPYGVTNGTPFSLPIENGLIVGFKGSIGYWLDYFSIYLSL
B1 was tested, and the “glycan array binding signal (z-score)” value [1] was -0.291, the “glycan array binding signal (z-score)” value [2] was -0.294 and the “glycan array binding signal (z-score)” value [3] was -0.222. For the same binder, the “glycan array binding signal (z-score)” value [4] was -0.31, the “glycan array binding signal (z-score)” value [5] was 0.036 and the “glycan array binding signal (z-score)” value [6] was -0.185. The “glycan array binding signal (z-score)” value [7] was -0.279, the “glycan array binding signal (z-score)” value [8] was -0.324 and the “glycan array binding signal (z-score)” value [9] was -0.112. For the same binder, the “glycan array binding signal (z-score)” value [10] was -0.256, the “glycan array binding signal (z-score)” value [11] was -0.25 and the “glycan array binding signal (z-score)” value [12] was -0.294. For the same binder, the “glycan array binding signal (z-score)” value [13] was -0.349, the “glycan array binding signal (z-score)” value [14] was -0.223 and the “glycan array binding signal (z-score)” value [15] was -0.26. For the same binder, the “glycan array binding signal (z-score)” value [16] was -0.197, the “glycan array binding signal (z-score)” value [17] was -0.154 and the “glycan array binding signal (z-score)” value [18] was -0.18. For the same binder, the “glycan array binding signal (z-score)” value [19] was -0.207, the “glycan array binding signal (z-score)” value [20] was -0.162 and the “glycan array binding signal (z-score)” value [21] was -0.232. The “glycan array binding signal (z-score)” value [22] was -0.124, the “glycan array binding signal (z-score)” value [23] was -0.185 and the “glycan array binding signal (z-score)” value [24] was -0.166. The “glycan array binding signal (z-score)” value [25] was -0.26, the “glycan array binding signal (z-score)” value [26] was -0.111 and the “glycan array binding signal (z-score)” value [27] was -0.297. The “glycan array binding signal (z-score)” value [28] was -0.21, the “glycan array binding signal (z-score)” value [29] was -0.224 and the “glycan array binding signal (z-score)” value [30] was -0.153. For the same binder, the “glycan array binding signal (z-score)” value [31] was -0.302, the “glycan array binding signal (z-score)” value [32] was -0.046 and the “glycan array binding signal (z-score)” value [33] was -0.263. For the same binder, the “glycan array binding signal (z-score)” value [34] was -0.306, the “glycan array binding signal (z-score)” value [35] was -0.214 and the “glycan array binding signal (z-score)” value [36] was -0.276. The “glycan array binding signal (z-score)” value [37] was -0.279, the “glycan array binding signal (z-score)” value [38] was -0.264 and the “glycan array binding signal (z-score)” value [39] was -0.072. The “glycan array binding signal (z-score)” value [40] was -0.278, the “glycan array binding signal (z-score)” value [41] was -0.221 and the “glycan array binding signal (z-score)” value [42] was -0.206. The “glycan array binding signal (z-score)” value [43] was -0.244, the “glycan array binding signal (z-score)” value [44] was 3.21 and the “glycan array binding signal (z-score)” value [45] was 0.302.
